Results taken from ChEMBL document CHEMBL1201862, “PubChem BioAssay data set” (2004).
“And” between values parts separate entries of the source, which are not always exact repeats. Equal entries are not always repeated.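 Cells were grown in 96-well plates and exposed to each compound for 48 hours at five concentrations; endpoints were interpolated linearly between bracketing concentrations, or set to the highest concentration if not reached. Abbreviation: GI50, concentration required for 50% inhibition of growth.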 The source made the active and inactive calls. Cut-off read from the data, not from the text of the source: active = GI50 up to about 1.1 µM and inactive = higher.

tested on: NCI-H322M; assay: DTP human tumour cell line panel, 48 h

Row | SMILES | GI50
1 | N=C(N)N/N=C/c1c(-c2cc([N+](=O)[O-])c(Cl)cc2Cl)nc2sccn12 | active: 1.08 µM and inactive: 1.57 µM
2 | c1ccc2c(c1)CCC/C2=N\OCC1CO1 (centres undefined) | inactive: > 100 µM
3 | CSC1=Nc2ccccc2-c2nc3ccccc3cc2C1 | inactive: > 100 µM
4 | O=C1c2ccccc2C(=O)c2c1oc1cc(O)c(Cl)cc21 | inactive: 10.9 µM
5 | COc1cc2c(OC)cc1CSCc1sc(C)c(c1Br)CSC2 | inactive: > 100 µM
6 | N#Cc1c(Cl)c2cccnc2n2c1nc1ccccc12 | inactive: 12.3 µM
7 | O=C1[C@H]2C(c3ccccc3)=NN(C(=O)c3ccccc3)[C@H]2C(=O)N1c1ccccc1 | inactive: > 100 µM
8 | CN(C(=O)Cc1cccc(N=C=S)c1)[C@H]1CCCC[C@@H]1N1CCCC1 | inactive: 17.3 µM
9 | O=C1OC(=O)c2c1c(-c1ccccc1)nc1ccccc21 | inactive: > 100 µM
10 | [O-][S+](CCCl)c1c2ccccc2nc2ccccc12 (centres undefined) | inactive: > 100 µM
11 | CC(=O)N1N=C(c2ccc3ccccc3c2O)CC1c1ccc(Cl)cc1Cl (centres undefined) | inactive: 46.8 µM
12 | COC(=O)C(=O)CC(=O)CCn1[nH]c(=O)c(Cl)c(Cl)c1=O | inactive: > 100 µM
13 | C[Si](C)(C)C1(Sc2ccccc2)SCCCS1 | inactive: 44.2 µM
14 | O=C(CCCn1ccnc1[N+](=O)[O-])NCCn1ccnc1 | inactive: > 100 µM
15 | COc1ccccc1-n1c(C)nc2ccccc2c1=O | inactive: > 100 µM
16 | O=C(/C(Cl)=C/c1ccccc1)c1ccccc1 | inactive: 15.2 µM
17 | COC(=O)c1ccc(OCc2ccc3oc(=O)c(-c4ccccc4)nc3c2)cc1 | inactive: > 100 µM
18 | OC1C2[C@@H](O)CCCN2C[C@@H](O)[C@H]1O (some centres undefined) | inactive: > 100 µM
19 | CC(=O)c1cc2c(s1)C(=O)c1ccccc1C2=O | inactive: 4.93 µM
20 | CC(=O)O[C@H]1CC[C@@]2(C)C(=CC[C@@H]3C2CC[C@]2(C)Nc4c(cnn4-c4ccccc4)CC32)C1 (some centres undefined) | inactive: 5.77 µM
21 | COC(=O)n1c(CBr)c(Br)c2ccccc21 | inactive: 94.2 µM
22 | NC(=O)c1ccc[n+](C2=C([N-]S(=O)(=O)c3ccccc3)C(=O)c3ccccc3C2=O)c1 | inactive: 15.9 µM
23 | CC(C)(Oc1ccc(Cl)cc1)C(=O)N(C(=O)N1CCCCC1)c1ccccc1 | inactive: 16 µM
24 | COc1ccc2ccccc2c1/C=C/C(=O)c1ccccc1 | inactive: 3.66 µM
25 | C=C1CC(C)(c2cccc(Nc3nc4ccccc4c4occc34)c2)OC1=O (centres undefined) | inactive: 31.7 µM

Row | SMILES | GI50
26 | C=C1CC[C@@H]2[C@](C)(COC(=O)CCC(=O)OC)CCC[C@@]2(C)[C@@H]1CCC1=CC(=O)OC1 | inactive: > 100 µM
27 | C[C@H](CCC(=O)O)[C@H]1CC[C@H]2[C@@H]3[C@@H](O)C[C@@H]4C[C@H](O)CC[C@]4(C)[C@H]3CC[C@]12C [URSODIOL] | inactive: > 100 µM
28 | NCCSc1cc(O)c2c(c1N)C(=O)c1ccccc1C2=O | inactive: > 100 µM
29 | CN(/N=C/c1ccccn1)C1=NCCN1 | inactive: > 100 µM
30 | Cc1ccc2c(c1C)C(=O)C1(C2)Cc2ccc3c(c2C1=O)CCC3 (centres undefined) | inactive: > 100 µM
31 | O=C1C[C@@H]2[C@@H](C=CC23CC3)N1O | inactive: > 100 µM
32 | COC(=O)c1cc(C#Cc2cc(OC)ccc2OC)ccc1OC | inactive: > 100 µM
33 | CC(=O)N(C)C=C1C(=O)N(C)C(=O)N(C)C1=O | inactive: > 100 µM
34 | O=C(NC1(C(=O)NNc2nnc(-c3ccccc3)c(-c3ccccc3)n2)C(c2ccccc2)C(c2ccccc2)=NN1c1ccccc1)c1ccccc1 (centres undefined) | inactive: > 100 µM
35 | NCCC(=O)N[C@@H](Cc1cc(O)c(O)c(SCC(NC(=O)CC[C@H](N)C(=O)O)C(=O)NCC(=O)O)c1)C(=O)O (some centres undefined) | inactive: > 50 µM
36 | COC(=O)C1=C(C)NC(C)=C([N+](=O)[O-])C1c1cccc(N=O)c1 (centres undefined) | inactive: 33.9 µM
37 | O=C(O)CCSC(=S)Nc1cccc(F)c1 | inactive: 88.3 µM
38 | Cc1cc(C)cc(Nc2cc(O)nc(O)n2)c1 | inactive: > 100 µM
39 | COc1c(-c2nc3ccc(N4CCN(C)CC4)nc3[nH]2)cc(OC)c2[nH]c(CO)nc12 | inactive: 48.3 µM
40 | CS(=O)(=O)c1n[nH]c2nc(O)nc(O)c12 | inactive: > 10 µM
41 | OC12CC3c4ccccc4NC3C3Oc4cccc5c4C31CCN(CC1CC1)C2C5 (centres undefined) | inactive: 15.7 µM
42 | CCOc1cc2c(cc1O)CC[C@@H]1[C@@H]2CC[C@]2(C)C(OS(=O)OC3CC[C@@H]4[C@H]5CCc6cc(O)c(OCC)cc6[C@@H]5CC[C@@]34C)CC[C@@H]12 (some centres undefined) | inactive: 1.83 µM
43 | COc1cc(/C=N\c2nc(-c3ccc(NS(=O)(=O)c4ccc(Cl)c(OC)c4)cc3)cs2)ccc1O | inactive: 47.6 µM
44 | CCCCCCCCCCCCCC(=O)O.O=CC(O)C(O)C(OC1OC(CO)C(O)C(O)C1O)C(O)CO (centres undefined) | inactive: 41.5 µM
45 | CCCc1c2c([nH]c(=O)c1C)C(=O)c1[nH]c(=O)c(C)c(CCC)c1C2=O | inactive: 12.9 µM
46 | c1ccc2c(c1)ccc1cc3cc(NCCCCNc4ccc5nc6c(ccc7ccccc76)cc5c4)ccc3nc12 | inactive: 1.53 µM
47 | O=CN/C=C/c1cc(O)ccc1O [ERBSTATIN] | inactive: > 100 µM
48 | Nn1c(S)nnc1CCCCCCCCc1nnc(S)n1N | inactive: > 100 µM
49 | Cc1cc(O)nc(NN2C(Cl)C(=O)C2c2cccc([N+](=O)[O-])c2)n1 (centres undefined) | inactive: 22.6 µM
